Reference: article PMC4336329 (PLoS ONE, 2015)
The whole screen tested about 310,000 compounds, of which about 2,200 (0.71%) showed an effect of 50% or more. The effect is printed as a negative number. The list shows a part of the results.

These molecules were tested against human ether-à-go-go-related gene (hERG) potassium channel (human, UniProt Q12809) (assay: primary screen, population patch clamp on CHO cells stably expressing hERG).
Chain of human ether-à-go-go-related gene (hERG) potassium channel (Q12809 whole entry, looked up): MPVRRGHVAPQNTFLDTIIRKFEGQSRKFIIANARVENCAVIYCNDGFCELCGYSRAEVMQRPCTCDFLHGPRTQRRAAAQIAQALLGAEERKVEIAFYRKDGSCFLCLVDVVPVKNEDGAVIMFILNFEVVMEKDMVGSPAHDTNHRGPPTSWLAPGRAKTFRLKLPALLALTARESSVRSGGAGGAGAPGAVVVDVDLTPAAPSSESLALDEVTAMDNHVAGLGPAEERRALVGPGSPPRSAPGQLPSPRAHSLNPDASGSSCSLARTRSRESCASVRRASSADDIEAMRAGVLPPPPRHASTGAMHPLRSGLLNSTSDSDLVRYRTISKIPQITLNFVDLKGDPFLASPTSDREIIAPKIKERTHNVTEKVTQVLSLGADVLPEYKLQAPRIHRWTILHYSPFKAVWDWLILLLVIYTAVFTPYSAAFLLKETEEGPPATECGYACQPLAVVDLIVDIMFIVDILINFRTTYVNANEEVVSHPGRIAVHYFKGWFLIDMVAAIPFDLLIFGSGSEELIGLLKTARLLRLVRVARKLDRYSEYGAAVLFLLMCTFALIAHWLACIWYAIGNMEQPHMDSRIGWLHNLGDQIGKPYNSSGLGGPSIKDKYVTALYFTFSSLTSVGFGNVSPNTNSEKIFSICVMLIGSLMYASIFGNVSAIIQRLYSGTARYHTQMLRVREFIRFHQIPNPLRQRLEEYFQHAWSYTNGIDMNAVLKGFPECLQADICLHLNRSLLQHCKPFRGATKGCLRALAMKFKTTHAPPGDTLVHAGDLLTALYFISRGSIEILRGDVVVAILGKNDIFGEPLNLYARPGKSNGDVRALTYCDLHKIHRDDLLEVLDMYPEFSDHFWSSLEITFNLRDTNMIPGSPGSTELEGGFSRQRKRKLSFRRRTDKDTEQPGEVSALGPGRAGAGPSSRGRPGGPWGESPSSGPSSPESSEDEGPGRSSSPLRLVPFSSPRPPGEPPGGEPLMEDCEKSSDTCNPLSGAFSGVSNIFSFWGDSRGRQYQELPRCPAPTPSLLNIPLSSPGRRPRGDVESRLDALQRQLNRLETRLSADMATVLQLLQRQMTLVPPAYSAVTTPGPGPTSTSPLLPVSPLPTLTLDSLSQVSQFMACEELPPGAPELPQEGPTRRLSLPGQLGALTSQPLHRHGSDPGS

| SMILES | hERG current change (%, negative = inhibition) at 1uM [%] |
| --- | --- |
| O=C(CSc1ncnc2c1cnn2CCO)Nc1cccc(C(F)(F)F)c1 | 7.29 |
| Cc1ccc(C)c(N2C(=O)CC(Cc3ccc(Br)cc3)C2=O)c1 (stereo not shown) | 13.6 |
| O=C(NCCN1CCOCC1)c1cc(-c2cccc(Cl)c2)on1 | 8.97 |
| CCc1ccc(NC(=O)C(NS(=O)(=O)c2cccc3nsnc23)c2ccccc2)cc1 (stereo not shown) | -0.0201 |
| O=C(O)CC/C(=N/NC(=O)c1cccs1)c1ccccc1 | 12.6 |
| CCOc1ccc(/C(O)=C2/C(=O)C(=O)N(c3ncccn3)C2c2ccccc2)cc1 (stereo not shown) | 6.57 |
| O=S(=O)(c1ccc(Cl)cc1)c1cnc(-c2cccnc2)nc1-c1ccccc1 | 3.26 |
| O=C1NN(c2ccccc2)C(=O)/C1=C\c1cccn1-c1ccc(Cl)c([N+](=O)[O-])c1 | 6.1 |
| Cc1ccc(-n2c(C)cc(/C=C3/C(=O)NC(=O)N(C)C3=O)c2C)cc1 | 15.4 |
| Cc1cccc(CN2C(=O)c3ccccc3Sc3ccc(C(=O)NCCCN4CCOCC4)cc32)c1 | 11.9 |
| CC(C)CC(=O)NC1(C(F)(F)F)C(=O)Nc2c1c(=O)n(C)c(=O)n2C (stereo not shown) | 9.07 |
| O=C1c2ccccc2C(=O)N1CCCON1C(=O)c2ccccc2C1=O | 0.362 |
| Cc1cc(NC(=O)CSc2nccn2C)n(-c2ccccc2)n1 | 13 |
| CN(C)S(=O)(=O)c1ccc(C(=O)NCC2(N3CCCCC3)CCCCC2)cc1 | 4.22 |
| O=C(Nc1nccs1)C1(c2ccc(Cl)cc2)CC1 | 9.12 |
| O=[N+]([O-])c1cc(S(=O)(=O)c2ccc([O-])c([N+](=O)[O-])c2)ccc1[O-].[Na+] | 18.4 |
| Cc1cc(C(=O)N2CCN(c3ccccn3)CC2)c(C)o1 | 4.33 |
| Cc1nc(NC(=O)c2ccc(F)cc2)nc2cc3c(cc12)OCO3 | 5.87 |
| CCCC(=O)NC(=S)Nc1ccccc1C(F)(F)F | 12.2 |
| O=C1NC(=O)C(=Cc2ccc3c(c2)OCO3)C(=O)N1 | 13.3 |
| Cc1cccc(-c2nn(-c3ccccc3)cc2C(=O)Nc2cccc(S(=O)(=O)NC3=NCCC3)c2)c1 | 9.34 |
| O=C(CSc1ccc2ccccc2c1)Nn1cnnc1 | 15.4 |

| SMILES | hERG current change (%, negative = inhibition) at 1uM [%] |
| --- | --- |
| CC1CCCC(C)N1NC(=O)c1cccc(S(=O)(=O)N2CCc3ccccc32)c1 (stereo not shown) | 13.9 |
| CC(C)C(NC(=O)CCNC(=O)c1ccccc1Cl)c1nc2ccccc2[nH]1 (stereo not shown) | 1.56 |
| Cc1nc(-c2noc(-c3ccccc3Cl)n2)c(C(F)(F)F)o1 | 12.2 |
| O=C(c1cccc([N+](=O)[O-])c1)N1CCCC(C(=O)N2CCc3ccccc3C2)C1 (stereo not shown) | -3.29 |
| CC1CC(C)CN(C(=O)Cn2c(-c3nonc3N)nc3ccccc32)C1 (stereo not shown) | 5.48 |
| CC1(C)Cc2cccc(OCC(=O)Nc3cc(C(F)(F)F)ccc3N3CCOCC3)c2O1 | 10.7 |
| COc1ccc(Cc2nnc(NC(=O)CSc3ccc(C)cc3)s2)cc1 | 21 |
| Nc1nc2ncc(C(=O)c3cc(Cl)cc(Cl)c3O)cc2s1 | 7.66 |
| O=C(COC(=O)Cc1ccccc1F)Nc1cccc(F)c1 | 12.1 |
| Cc1ccc(OCCNC(=O)c2ccc3ccccc3n2)cc1 | 0.207 |
| Cc1noc(C(=O)NCc2ccco2)c1Cl | 1.53 |
| Cc1ccc(N=C2c3ccccc3C(=O)C2[N+](=O)[O-])cc1C (stereo not shown) | 11.5 |
| CCc1ccc(NC(=S)N2CCNC(=O)C2CC(=O)OC)cc1 (stereo not shown) | -0.278 |
| O=C(Cn1c(-c2cscn2)nc2ccccc21)Nc1cc(F)ccc1F | 11.9 |
| COc1ccccc1CNC(=O)CSc1ccsc1[N+](=O)[O-] | 6.97 |
| Cc1cccc(CSc2nnc([C@@H]3CCCN3)o2)c1.Cl | -1.5 |
| CCOC(=O)c1ccc(N/C=C\C(=O)c2cccc(OC)c2)cc1 | 8.2 |
| CCOC(=O)C1=C(C)N=c2s/c(=C\c3cccc(OCC(=O)O)c3)c(=O)n2C1c1ccccc1OC (stereo not shown) | 14.5 |
| CSc1ccccc1NC(=O)C1CCCO1 (stereo not shown) | 3.29 |
| Cc1ccc(CCNC(=O)C2CCN(C(=O)c3sccc3-n3cccc3)CC2)cc1 | -4.63 |
| Cc1cc(NC(=O)C2C3C(=O)N(Cc4ccc(Cl)cc4)C(C(=O)NCc4ccccc4)C34C=CC2(C)O4)no1 (stereo not shown) | 4.72 |
| CCCCNS(=O)(=O)/C=C/c1ccccc1 | 13.9 |

| SMILES | hERG current change (%, negative = inhibition) at 1uM [%] |
| --- | --- |
| COc1ccc(OC)c(/C=C/C(=O)OCC(=O)N2CCCC2)c1 | 12.3 |
| O=C1CC(c2ccc(S(=O)(=O)NC3CC3)cc2)CN1 (stereo not shown) | 2.43 |
| Cc1cc(Cl)ccc1Oc1nccc(N(C)C)c1C#N | 5.45 |
| COC(=O)C(C)Oc1ccc2c(-c3cccc([N+](=O)[O-])c3)cc(=O)oc2c1 (stereo not shown) | -8.25 |
| O=C(Nn1c(SCc2ccc([N+](=O)[O-])cc2)nc2ccccc2c1=O)c1ccc(F)cc1 | 7.8 |
| COc1ccc(COC(=O)c2cccc(S(=O)(=O)N3CCN(C(C)=O)CC3)c2)cc1F | 10.7 |
| Cc1cc(C=C2C(=O)N(C)C(=S)N(C)C2=O)c(C)n1-c1ccncc1 | 11.3 |
| S=c1nc(-c2cccc(Br)c2)[nH][nH]1 | 11.2 |
| CCCS(=O)(=O)N1CCN(C(=O)c2ccccc2F)CC1 | 0.177 |
| COc1cc(C(=O)NNC(=O)COc2ccccc2Cl)ccc1OCC(=O)N1CCOCC1 | 6.06 |
| CC(C)COc1cc(=O)[nH]c(SCC(C)C)n1 | -1.08 |
| CC(=O)N/N=c1\sc2ccccc2n1C | 9.01 |
| C=CCNC(=O)CSc1nc2sc3c(c2c(=O)n1CCC)CCC3 | 18.7 |
| O=C(Nc1ccc(S(=O)(=O)N2CCOCC2)cc1)c1ccc(Br)o1 | -25.9 |
| COc1ccccc1N1CCN(C/C(O)=C(\C#N)c2nc(-c3ccccc3)cs2)CC1 | 19.5 |
| CCC(=O)Nc1c(-c2ccccc2Cl)c(=O)c2ccccc2n1C | 14.4 |
| Cc1nn(Cc2ccccc2)c(C)c1CCC(=O)O | 2.37 |
| COC(=O)CCC(=O)OC1(C)C(=O)C=C2C=C(C3CC3)N(CCCCO)C=C2C1=O (stereo not shown) | 8.61 |
| COc1cccc(OC)c1C(=O)Nc1nnc(-c2ccc(F)cc2)s1 | 9.13 |
| Cc1cccc(C)c1OCc1nnc(SCC(=O)Nc2ccccc2F)o1 | 12.3 |
| O=C(NCC1COc2ccccc2O1)c1ccc(Br)s1 (stereo not shown) | 13.9 |
| COc1cccc(C2/C(=C(\O)c3ccc4c(c3)OCCO4)C(=O)C(=O)N2CC2CCCO2)c1 (stereo not shown) | 1.12 |

| SMILES | hERG current change (%, negative = inhibition) at 1uM [%] |
| --- | --- |
| S=c1[nH]nc(COc2ccccc2)n1/N=C/c1cccc(Br)c1 | 10.3 |
| O=S(=O)(Nc1ccc2[nH]ncc2c1)c1ccccc1Cl | 17.5 |
| Cc1c(OCc2nn[nH]n2)ccc2c(-c3ccccc3)cc(=O)oc12 | 10.3 |
| O=C(O)C1CC(=O)N(c2ccc(OCc3ccc(Br)cc3)cc2)C1 (stereo not shown) | 10.5 |
| O=C(CSc1nnnn1-c1ccc(Cl)cc1)NC(=O)Nc1ccc2c(c1)OCCO2 | 8.09 |
| O=C(Nc1ccncc1)Nc1ccc(F)cc1 | 14.2 |
| COc1ccccc1N1CCN(CC(O)COc2ccc3c(c2)CCC3)CC1.Cl (stereo not shown) | -37.5 |
| Cc1ccc(C)c(NC(=O)c2cccc(Oc3ccc([N+](=O)[O-])cc3Cl)c2)c1 | -13.9 |
| COC(=O)/C=C1/SC(=Nc2ccc(C)cc2C)NC1=O | 6.86 |
| O=C(NC1CCSc2ccccc21)c1ccccc1Br (stereo not shown) | 6.64 |
| COc1cccc(N(CC(=O)NC(C)(C)C)C(=O)C2CSC(=O)C2)c1 (stereo not shown) | -1.07 |
| CNS(=O)(=O)c1cccc(C(=O)OCC(=O)N2CCCC2)c1 | 12.6 |
| O=[N+]([O-])c1ccc(N2CCCC2)cc1NCc1ccccc1 | 11.4 |
| NC(=O)NC(=O)c1nccnc1C(=O)O | 12 |
| CCOC(=O)CC1=C(C(=O)OCC)C(c2ccc(C)o2)C(C#N)=C(N)O1 (stereo not shown) | 6.83 |
| CCN1C(=O)[C@H]2[C@@H](c3ccc(Cl)cc3)N3C(=O)CN(CCOC)C(=O)[C@@]3(C)[C@H]2C1=O | 5.13 |
| CCOc1ccc(Cc2c(O)[nH]c(=O)[nH]c2=O)cc1 | 16.7 |
| O=C(CCn1cnnn1)Nc1ccccc1 | 10.7 |
| CN(C)S(=O)(=O)n1cc(/C=C(\NC(=O)c2ccccc2)C(=O)NCCN2CCOCC2)c2ccccc21 | 8.99 |
| Nn1c(SCc2cc([N+](=O)[O-])cc3c2OCOC3)nnc1-c1cccnc1 | 9.15 |
| Cn1c(SCC(=O)NC2CCCC2)nc2cccnc21 | 10.4 |
| CC1Cc2ccccc2N1C(=O)CN(C)CC(=O)Nc1cccc(F)c1 (stereo not shown) | -2.26 |
